For orientation: Kd means a measure of binding affinity in units of concentration. As a reminder, the koff is the first-order rate constant of dissociation.

Assay [1] has as its target recombinant human PDGF-D (human). Put plainly: Biacore premix competition: CR002 (mouse Fc, 1.6-200 nM) pre-incubated with 10 nM hPDGF-D, injected over human PDGFR beta-hIgG1 captured by anti-human Fc on a CM4 chip; response at 95 s; blocked ligand-receptor pair hPDGF-D / PDGFR beta. (Surface plasmon resonance follows binding to a sensor surface in real time, without labels.)

The target of assay [2] is recombinant human PDGF-B (human) (UniProt P01127). As to the kind of experiment: SPR (Biacore T200), antibody captured by anti-human Fc, antigen as analyte, 25 degrees C, pH 7.4, 1:1 model.
Sequence of UniProt P01127 (P01127 82-190 limits assumed): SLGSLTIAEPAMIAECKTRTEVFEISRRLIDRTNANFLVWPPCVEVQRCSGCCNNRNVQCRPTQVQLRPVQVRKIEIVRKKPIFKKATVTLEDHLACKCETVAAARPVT
In assay [3] the target is recombinant human PDGF-D (human). As to the kind of experiment: SPR (Biacore T200), footnote to the starred cells of Table 3; unit inferred; bispecific CPR001GL/xCR002-SG181v14hk, starred cell r14c3.
Assay [4] shares this target. Put plainly: SPR (Biacore T200), antibody captured by anti-human Fc, antigen as analyte, 25 degrees C, pH 7.4, 1:1 model; footnote *: KD cannot be uniquely determined.
Assay [5] shares this target. Put plainly: SPR (Biacore T200), footnote to the starred cells of Table 3; unit inferred; CR002-F1332m, starred cell r12c3.

B1: Anti-PDGF-D antibody (CR002) with mouse Fc (antibody, V domains shown)
VH: QVQLVQSGAEVKKPGASVKVSCKASGYTFTSYDINWVRQATGQGLEWMGWINPNSGNTDYAQKFQGRVTMTRDTSISTAYMELSSLRSEDTAIYYCVRGFGYSYNYDYYYGMDVWGQGTTVTVSS
VL: [omitted - about 100 residues]SFGQGTKLEIK
Regarding B1, the IC50 (read off the curve) in assay [1] turned out to be 20 nM.

B2: CPR001GL/xCR002-SG181v14hk (bispecific antibody, V domains shown)
VH 1: EVQLLESGGGLVQPGGSLRLSCAASGFTFSSYAMSWVRQAPGKGLEWVSYISDDGSLKYYADSVKGRFTISRDNSKNTLYLQMNSLRAEDTAVYYCAKHPYWYGGQLDLWGQGTLVTVSS
VL 1: SYELTQPPSVSVSPGQTASITCSGDSLGSYFVHWYQQKPGQSPVLVIYDDSNRPSGIPERFSGSNSGNTATLTISGTQAMDEADYYCSAFTHNSDVFGGGTKLTVL
VH 2: QVQLVQSGAEVKKPGASVKVSCKASGYTFTSYDINWVRQATGQGLEWMGWINPNSGNTDYAQKFQGRVTMTRDTSISTAYMELSSLRSEDTAIYYCVRGFGYSYNYDYYYGMDVWGQGTTVTVSS
VL 2: [omitted - about 100 residues]SFGQGTKLEIK
In the case of B2, the Kd in assay [2] came out at 0.0211 nM; in assay [4], 0.000534 nM. In addition, the koff in assay [3] was less than 1e-05 s⁻¹.

B3: CR002-F1332m (antibody, V domains shown)
VH: QVQLVQSGAEVKKPGASVKVSCKASGYTFTSYDINWVRQATGQGLEWMGWINPNSGNTDYAQKFQGRVTMTRDTSISTAYMELSSLRSEDTAIYYCVRGFGYSYNYDYYYGMDVWGQGTTVTVSS
VL: [omitted - about 100 residues]SFGQGTKLEIK
As for B3, in assay [5], the koff was less than 1e-05 s⁻¹.

Source of the values: patent publication US20220242944A1.
